Results are given in words; binding and its absence hold for the method and conditions named. In cells and extracts the contact can be indirect. Some entries that bind do so weakly or less than the wild type. Values belong to the molecule of their own block, whether it stands above or below them.
Tests used:
[1] = biological target: T1, toll-like receptor 4 (TLR4), rat, endogenous (rat (endogenous in H9C2 and primary cardiomyocytes)) (UniProt Q9QX05); experiment: condition: only cells given 30 μg/mL MGO-BSA or CML-BSA in place of AGE-BSA; co-IP; H9C2 lysates; cells exposed to 30 μg/mL MGO-BSA or CML-BSA in place of AGE-BSA
T1 sequence: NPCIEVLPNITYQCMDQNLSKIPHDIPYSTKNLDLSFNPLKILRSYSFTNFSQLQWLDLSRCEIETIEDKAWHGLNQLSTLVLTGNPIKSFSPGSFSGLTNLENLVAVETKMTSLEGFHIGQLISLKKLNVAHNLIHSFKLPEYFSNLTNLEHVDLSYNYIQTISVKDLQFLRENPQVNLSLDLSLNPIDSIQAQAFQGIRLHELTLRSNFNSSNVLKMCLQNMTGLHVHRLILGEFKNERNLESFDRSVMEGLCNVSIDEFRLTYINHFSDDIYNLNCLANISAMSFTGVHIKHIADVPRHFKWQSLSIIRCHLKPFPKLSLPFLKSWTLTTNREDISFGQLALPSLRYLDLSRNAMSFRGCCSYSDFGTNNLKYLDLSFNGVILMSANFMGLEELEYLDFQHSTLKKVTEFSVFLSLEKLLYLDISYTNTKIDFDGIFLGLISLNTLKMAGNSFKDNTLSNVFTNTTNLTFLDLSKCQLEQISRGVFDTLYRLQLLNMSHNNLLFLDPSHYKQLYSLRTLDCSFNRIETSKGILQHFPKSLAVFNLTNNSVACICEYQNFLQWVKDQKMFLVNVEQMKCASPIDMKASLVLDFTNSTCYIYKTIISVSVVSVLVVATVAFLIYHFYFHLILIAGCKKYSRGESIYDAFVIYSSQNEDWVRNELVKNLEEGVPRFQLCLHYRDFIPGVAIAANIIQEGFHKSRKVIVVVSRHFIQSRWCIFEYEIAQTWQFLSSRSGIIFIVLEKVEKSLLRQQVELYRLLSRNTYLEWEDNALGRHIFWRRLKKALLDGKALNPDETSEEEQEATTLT

Amino acid sequences for entries named in this document (tags omitted). Residues count along the entry.
UniProt Q9QUK6, residues 26-835: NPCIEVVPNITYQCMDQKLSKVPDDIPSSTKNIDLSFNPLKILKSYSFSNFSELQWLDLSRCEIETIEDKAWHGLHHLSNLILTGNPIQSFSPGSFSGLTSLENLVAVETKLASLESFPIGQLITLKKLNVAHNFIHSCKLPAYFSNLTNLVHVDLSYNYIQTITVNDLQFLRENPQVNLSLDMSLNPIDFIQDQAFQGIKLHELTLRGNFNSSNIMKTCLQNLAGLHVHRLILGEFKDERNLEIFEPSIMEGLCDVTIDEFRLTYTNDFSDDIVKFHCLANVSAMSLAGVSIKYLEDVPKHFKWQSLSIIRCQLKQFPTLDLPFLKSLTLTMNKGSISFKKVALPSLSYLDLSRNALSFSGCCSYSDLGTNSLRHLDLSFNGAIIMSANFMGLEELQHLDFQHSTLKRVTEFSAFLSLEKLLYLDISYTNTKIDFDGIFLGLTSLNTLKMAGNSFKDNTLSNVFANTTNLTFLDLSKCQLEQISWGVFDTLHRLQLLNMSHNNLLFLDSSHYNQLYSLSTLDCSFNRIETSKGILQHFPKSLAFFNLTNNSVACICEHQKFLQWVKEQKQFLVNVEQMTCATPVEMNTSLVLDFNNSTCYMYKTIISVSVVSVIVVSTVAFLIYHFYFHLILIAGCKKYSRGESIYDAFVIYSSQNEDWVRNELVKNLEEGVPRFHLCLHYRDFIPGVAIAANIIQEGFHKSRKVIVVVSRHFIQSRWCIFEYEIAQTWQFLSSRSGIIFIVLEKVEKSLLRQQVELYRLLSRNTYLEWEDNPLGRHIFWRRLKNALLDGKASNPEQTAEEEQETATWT
UniProt O00206, residues 24-839: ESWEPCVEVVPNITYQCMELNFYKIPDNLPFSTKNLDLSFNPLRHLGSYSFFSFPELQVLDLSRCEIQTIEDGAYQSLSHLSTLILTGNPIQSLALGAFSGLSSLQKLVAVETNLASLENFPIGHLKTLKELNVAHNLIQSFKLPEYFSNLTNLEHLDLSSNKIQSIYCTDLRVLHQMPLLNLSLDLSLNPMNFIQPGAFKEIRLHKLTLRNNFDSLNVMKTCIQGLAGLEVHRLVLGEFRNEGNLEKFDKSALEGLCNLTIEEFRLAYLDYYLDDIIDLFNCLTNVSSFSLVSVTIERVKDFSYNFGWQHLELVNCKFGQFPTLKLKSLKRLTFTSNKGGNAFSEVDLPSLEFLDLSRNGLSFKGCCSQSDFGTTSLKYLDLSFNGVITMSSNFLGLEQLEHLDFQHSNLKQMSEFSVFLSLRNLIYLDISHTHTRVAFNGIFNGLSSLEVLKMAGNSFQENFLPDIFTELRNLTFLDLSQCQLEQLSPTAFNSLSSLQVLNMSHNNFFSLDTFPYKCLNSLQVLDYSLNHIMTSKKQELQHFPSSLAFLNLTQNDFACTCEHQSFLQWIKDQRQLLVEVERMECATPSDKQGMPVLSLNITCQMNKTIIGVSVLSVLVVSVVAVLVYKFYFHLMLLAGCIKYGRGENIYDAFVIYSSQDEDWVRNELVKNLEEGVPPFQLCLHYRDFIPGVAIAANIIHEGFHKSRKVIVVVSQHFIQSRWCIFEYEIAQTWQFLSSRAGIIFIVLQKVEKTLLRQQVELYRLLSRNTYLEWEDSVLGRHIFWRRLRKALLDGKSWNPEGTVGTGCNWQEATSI
UniProt Q6Y1S1: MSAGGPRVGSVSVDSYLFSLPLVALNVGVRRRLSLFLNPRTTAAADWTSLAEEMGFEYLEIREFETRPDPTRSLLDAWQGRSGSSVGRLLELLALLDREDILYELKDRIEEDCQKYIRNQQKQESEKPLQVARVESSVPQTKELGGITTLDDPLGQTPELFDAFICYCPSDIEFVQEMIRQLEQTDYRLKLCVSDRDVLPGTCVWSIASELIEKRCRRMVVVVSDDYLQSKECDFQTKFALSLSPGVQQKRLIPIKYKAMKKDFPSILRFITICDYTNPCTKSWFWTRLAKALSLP
UniProt P22366: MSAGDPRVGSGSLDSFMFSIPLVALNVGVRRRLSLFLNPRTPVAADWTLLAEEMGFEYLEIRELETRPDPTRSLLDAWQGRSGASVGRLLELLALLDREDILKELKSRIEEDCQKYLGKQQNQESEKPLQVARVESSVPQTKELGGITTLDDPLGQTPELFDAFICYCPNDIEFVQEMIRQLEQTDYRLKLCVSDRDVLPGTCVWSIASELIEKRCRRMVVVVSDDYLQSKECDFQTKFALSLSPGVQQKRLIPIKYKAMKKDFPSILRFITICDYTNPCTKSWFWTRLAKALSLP

[2] = biological target: T1, toll-like receptor 4 (TLR4), rat, endogenous (rat (endogenous in H9C2 and primary cardiomyocytes)); experiment: co-IP; H9C2 lysates; cells exposed to HG in medium without serum
[3] = biological target: T1, toll-like receptor 4 (TLR4), rat, endogenous (rat (endogenous in H9C2 and primary cardiomyocytes)); experiment: co-IP; H9C2 lysates, endogenous proteins; cells in medium with FBS exposed to HG (33 mM glucose, 5-30 min; 7-60 mM) or to AGE-BSA; also after siRNA to MD2, TLR4 or GLUT4, RAGE shRNA, NAC, 2-DG, polymyxin B or RS-LPS
[4] = biological target: toll-like receptor 4 (TLR4), mouse, endogenous (mouse (endogenous in heart tissue and peritoneal macrophages)) (UniProt Q9QUK6); experiment: co-IP; MPM lysates; cells exposed to HG in medium without serum
[5] = biological target: toll-like receptor 4 (TLR4), mouse, endogenous (mouse (endogenous in heart tissue and peritoneal macrophages)) (UniProt Q9QUK6); experiment: condition: only cells pretreated with 10 μM MD2 inhibitor L6H21 for 30 min; co-IP; MPM lysates; cells pretreated with 10 μM MD2 inhibitor L6H21 for 30 min before HG (33 mM glucose)
[6] = biological target: toll-like receptor 4 (TLR4), mouse, endogenous (mouse (endogenous in heart tissue and peritoneal macrophages)) (UniProt Q9QUK6); experiment: co-IP; mouse primary peritoneal macrophage (MPM) lysates, endogenous proteins; cells in medium with FBS exposed to HG (33 mM glucose; MD2-TLR4 at 5 min, TLR4-MyD88 at 15 min) or to AGE-BSA
[7] = biological target: toll-like receptor 4 (TLR4), mouse, endogenous (mouse (endogenous in heart tissue and peritoneal macrophages)) (UniProt Q9QUK6); experiment: condition: only cells given 30 μg/mL MGO-BSA or CML-BSA in place of AGE-BSA; co-IP; MPM lysates; cells exposed to 30 μg/mL MGO-BSA or CML-BSA in place of AGE-BSA
[8] = biological target: toll-like receptor 4 (TLR4), mouse, endogenous (mouse (endogenous in heart tissue and peritoneal macrophages)) (UniProt Q9QUK6); experiment: co-IP; homogenized mouse heart tissue lysates (non-diabetic controls, STZ diabetic mice at 16 weeks, db/m and db/db mice); precipitating antibody overnight at 4 °C, protein A + G-sepharose, immunoblot
[9] = biological target: toll-like receptor 4 (TLR4), human, endogenous (human (endogenous in PBMCs)) (UniProt O00206); experiment: co-IP; human peripheral blood mononuclear cells of healthy and diabetic subjects; blots of AGE-MD2 complexes

binding [1]: no binding
binding [3]: binds
Molecule: myeloid differentiation primary response-88 (MyD88), rat, endogenous (from UniProt Q6Y1S1 1-296)
binding [2]: no binding (condition: HG in medium without serum)

binding [5]: no binding
binding [6]: binds
binding [7]: no binding
Molecule: myeloid differentiation primary response-88 (MyD88), mouse, endogenous (from UniProt P22366 1-296)
binding [4]: no binding (condition: HG in medium without serum)

binding [8]: binds
binding [5]: no binding
binding [6]: binds
binding [7]: no binding
B1: myeloid differentiation 2 (MD2), mouse, endogenous (protein, UniProt Q9JHF9 19-160)
chain: EKQQWFCNSSDAIISYSYCDHLKFPISISSEPCIRLRGTNGFVHVEFIPRGNLKYLYFNLFISVNSIELPKRKEVLCHGHDDDYSFCRALKGETVNTSIPFSFEGILFPKGHYRCVAEAIAGDTEEKLFCLNFTIIHRRDVN
binding [4]: no binding (condition: HG in medium without serum)

binding [9]: binds
B2: recombinant human MD2 (rhMD2) (natural protein, UniProt Q9Y6Y9 19-160, looked up)
chain: QKQYWVCNSSDASISYTYCDKMQYPISINVNPCIELKRSKGLLHIFYIPRRDLKQLYFNLYITVNTMNLPKRKEVICRGSDDDYSFCRALKGETVNTTISFSFKGIKFSKGKYKCVVEAISGSPEEMLFCLEFVILHQPNSN
notes: MD2 (myeloid differentiation 2), human, recombinant; also called human recombinant MD2 protein; source: bought: R&D Systems
